ChEMBL document CHEMBL4888484, “Replenishing the malaria drug discovery pipeline: Screening and hit evaluation of the MMV Hit Generation Library 1 (HGL1) against asexual blood stage Plasmodium falciparum ,using a nano luciferase reporter read-out” (2022)
Hit rate of the full screen: of about 150,000 compounds, about 540 (0.36%) showed an effect of 50% or more. This is one part of the list.

Each molecule was assayed on Plasmodium falciparum (assay: Primary screen in NF54 nanoGlo assay, in single point, at 2uM, 72h; a lower Z score goes with more inhibition). Settings: timepoint 72 hour.
Format: functional, Erythrocyte

Row | SMILES | % Inhibition | Z score
1 | FC1(F)CC(COc2ncc(Br)cn2)C1 | -4% | 0.63
2 | O=C(CN1C(=O)N[C@]2(CCc3ccccc3C2)C1=O)Nc1ccc(Cl)cc1F | -5% | 0.81
3 | Cc1cc(C)c(CNS(=O)(=O)CC2CCOCC2)c(C)c1 | -11% | 1.54
4 | COc1c(F)c(F)c(CN2CCCCCC2=O)c(F)c1F | -6% | 0.76
5 | Cn1c(=O)[nH]c(=O)c2nc(C=Cc3ccccc3F)c(O)nc21 | -5% | 0.87
6 | COCCN1C[C@]2(CCCN(C(=O)c3cc(F)ccc3OC)C2)CCC1=O | -7% | 1.49
7 | COCCN(Cc1c(C(C)C)nn(-c2ccccc2)c1Oc1ccccc1F)C(=O)c1ccccc1 | 8% | -0.96
8 | O=C(c1ccccc1Cl)N1C2CCC1CC(n1cccn1)C2 (stereo unspecified) | 13% | -1.63
9 | Cc1cc(=O)c(C(=O)NCc2cccnc2N2CCCCCCC2)c[nH]1 | -18% | 2.87
10 | COCc1ccc(C(=O)N2CCC([C@H](Cc3ccc(F)cc3F)N(C)C(=O)c3cccnc3)CC2)o1 | 2% | -0.24
11 | COc1cccc(C(=O)N2CCN(C(=O)C(C)C)[C@@H]3CS(=O)(=O)C[C@@H]32)c1C | 0% | 0.04
12 | Cc1cc(CN2CCCN(C(=O)c3cccc(N(C)C)c3)CC2)no1 | -8% | 1.07
13 | COc1ccccc1CCNS(=O)(=O)C1CON(C)C1c1cccc(C(F)(F)F)c1 (stereo unspecified) | 0% | 0
14 | Cc1nc(C(N)=O)c2c(n1)n(-c1ccc(C)c(C)c1)c(=O)n2Cc1ccccc1 | 0% | 0.03
15 | Cc1c(C(=O)NC[C@H]2CCCO2)cccc1-n1c(C)nc2cccnc21 | 0% | -0.04
16 | Cc1nc(C(C)C)ncc1C(=O)N1[C@@H]2CC[C@H]1CNC(=O)C2 | 5% | -1.07
17 | CCC(=O)NCc1nc2c(n1C)CN(C(=O)c1cccc(Br)c1)CC2 | -10% | 1.12
18 | Cc1ccc2c(C3=CCN(C(=O)c4cnc5[nH]c(=O)[nH]c(=O)c5c4)CC3)c[nH]c2c1 | 6% | -1.15
19 | Cc1cnc(C(=O)N[C@H]2CCC(=O)NC2=O)cn1 | 4% | -0.69
20 | CCn1nccc1C(=O)NCCc1ccncc1 | -8% | 0.9
21 | COc1cc(-c2ccc(-c3cnco3)cc2)cc(OC)c1OC | -17% | 1.62
22 | COc1ccc(CN(C(=O)NC2CCCCC2)C(C)C)cc1OS(C)(=O)=O | 1% | -0.25

Row | SMILES | % Inhibition | Z score
23 | C[C@@H](CNc1nccs1)c1ccc(S(C)(=O)=O)cc1 | -1% | 0.19
24 | Cn1c(NC(=O)C(C)(C)S(=O)(=O)C2CC2)nc2cccc(Cl)c21 | 6% | -0.62
25 | CN(C)Cc1cc(NC(=O)c2cc[nH]c(=O)c2)ccc1Cl | 0% | 0.06
26 | N#Cc1c[nH]c(C(=O)NC(c2ccccn2)[C@H]2C[C@@H](O)C2)c1 (stereo partly specified) | 3% | -0.55
27 | C#CCOCCN(C)Cc1cnc(CC)s1 | -2% | 0.17
28 | CCCN(CC(=O)OC)Cc1csc(-c2ccccn2)n1 | -10% | 1.23
29 | O=C(Nc1cnc(Oc2ccccc2F)nc1)Nc1ccccc1Cl | 3% | -0.62
30 | c1ccc(-n2cccc2-c2nnc3cnccn23)nc1 | 1% | -0.17
31 | COc1nc(N)nc(N(C)C(=O)c2ccccc2)n1 | 8% | -1.59
32 | COc1cccc(-c2cc3n(n2)CCCN(Cc2cccc(F)c2)C3)c1 | -13% | 1.42
33 | Cn1nccc1[C@@H]1CN(C(=O)NCc2ccon2)CCO1 | -3% | 0.43
34 | Fc1ccc(CN2CC(n3ccnn3)C2)cc1 | 4% | -0.59
35 | Cc1ccc(CNC(=O)CN2CCN(C(=O)Nc3ccc(Br)cc3)CC2=O)o1 | -14% | 1.76
36 | CN(C)c1ccc(OCCCN2C(=O)CNC2=O)cc1 | -35% | 4.13
37 | COC1(OC)CC2(CN(c3ncc(C#N)cc3Cl)[C@H]2C(C)C)C1 | -2% | 0.21
38 | CC(C)CN(CCC(=O)Nc1ccc(F)cc1)c1nc(-c2ccc(F)cc2)nc2cc(Cl)ccc12 | 0% | -0.07
39 | CCCCCc1cn(C[C@H]2CCS(=O)(=O)C2)nn1 | -19% | 2.41
40 | Cc1cccc(NC(=O)c2c[nH]c3nc(C)ccc3c2=O)c1 | 4% | -0.5
41 | Cc1cc(C)cc(OCC(=O)NCCCN(C)C)c1 | 37% | -4.18
42 | COc1cc(NC(=O)N[C@H]2C[C@@](CO)(c3ccccc3)C2)n(C)n1 | -8% | 1.47
43 | CC(=O)N1CC(OCC(=O)Nc2ccc(F)cc2Nc2ccccc2F)C1 | -16% | 2.77
